In article PMC4336329 (PLoS ONE, 2015):
About 2,200 (0.71%) of roughly 310,000 compounds showed an effect of 50% or more. Effects have a minus sign here. The list shows a part of the results.

target: human ether-à-go-go-related gene (hERG) potassium channel (human, UniProt Q12809); experiment: primary screen, population patch clamp on CHO cells stably expressing hERG
Sequence (Q12809 whole entry, looked up): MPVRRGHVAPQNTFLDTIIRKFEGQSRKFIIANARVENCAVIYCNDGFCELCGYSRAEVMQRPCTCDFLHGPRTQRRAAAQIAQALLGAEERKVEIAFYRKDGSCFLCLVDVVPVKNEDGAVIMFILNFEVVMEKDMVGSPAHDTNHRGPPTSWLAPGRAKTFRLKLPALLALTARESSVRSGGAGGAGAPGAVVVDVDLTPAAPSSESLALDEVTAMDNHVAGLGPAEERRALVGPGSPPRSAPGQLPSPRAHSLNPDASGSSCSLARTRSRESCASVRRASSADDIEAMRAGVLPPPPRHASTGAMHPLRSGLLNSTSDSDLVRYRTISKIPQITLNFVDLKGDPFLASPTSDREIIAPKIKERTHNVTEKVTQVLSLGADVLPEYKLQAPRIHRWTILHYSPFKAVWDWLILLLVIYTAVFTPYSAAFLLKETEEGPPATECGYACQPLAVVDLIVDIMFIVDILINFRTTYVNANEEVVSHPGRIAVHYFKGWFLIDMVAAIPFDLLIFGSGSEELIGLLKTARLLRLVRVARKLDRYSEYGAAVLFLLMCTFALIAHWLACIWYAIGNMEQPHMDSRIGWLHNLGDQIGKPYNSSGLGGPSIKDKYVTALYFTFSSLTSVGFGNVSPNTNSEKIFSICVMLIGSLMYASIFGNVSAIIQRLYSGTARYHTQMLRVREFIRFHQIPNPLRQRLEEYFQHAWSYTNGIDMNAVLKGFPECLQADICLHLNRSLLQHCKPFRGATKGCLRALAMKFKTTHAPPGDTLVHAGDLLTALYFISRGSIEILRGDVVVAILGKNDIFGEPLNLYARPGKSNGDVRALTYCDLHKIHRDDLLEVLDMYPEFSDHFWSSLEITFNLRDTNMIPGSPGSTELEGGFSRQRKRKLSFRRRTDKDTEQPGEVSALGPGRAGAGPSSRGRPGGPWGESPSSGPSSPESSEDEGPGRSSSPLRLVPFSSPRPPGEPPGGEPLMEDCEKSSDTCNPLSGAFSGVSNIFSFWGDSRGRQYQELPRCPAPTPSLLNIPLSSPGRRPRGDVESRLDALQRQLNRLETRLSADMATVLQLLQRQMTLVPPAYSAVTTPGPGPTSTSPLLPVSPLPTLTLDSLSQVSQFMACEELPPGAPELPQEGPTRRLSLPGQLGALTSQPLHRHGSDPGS

| Structure (SMILES) | hERG current change (%, negative = inhibition) at 1uM |
| --- | --- |
| COc1ccccc1C(C)NS(=O)(=O)c1cccs1 (stereo not shown) | 14.2% |
| Cc1cc(C)c(C#N)c(SCCS(=O)(=O)c2ccc(Cl)cc2)n1 | 0.162% |
| COC(=O)/C(C#N)=C/c1occc1C | 4.47% |
| CCOC(=O)N1CCN(S(=O)(=O)c2ccc(C(=O)N(CCN(C)C)c3nc4c(C)cccc4s3)cc2)CC1.Cl | 9.5% |
| CCn1c(SCC(=O)Nc2ccc3c(c2)OCO3)nc2ccccc21 | 14.1% |
| Cc1ccc(C(=O)Nc2c(C)cc(-c3ccc(Cl)cc3)oc2=O)cc1 | 4.39% |
| Cn1c(O)c(C2=c3ccccc3=NC2=O)sc1=Nc1ccc(Cl)cc1 | 24.1% |
| COc1ccc(/C=N/Nc2nc3ccccc3o2)cc1OC | 16.9% |
| COc1ccc(C2/C=C\CN(Cc3ccco3)CC(=O)N2Cc2ccc(F)cc2)cc1 (stereo not shown) | 9.08% |
| O=c1[nH]c(=O)n(CCc2ccccc2)c(O)c1C=NCc1ccc2c(c1)OCO2 | 14% |
| Cc1nc(Nc2ccc(Cl)cc2)c2oc3ccccc3c2n1 | 8.9% |
| Cc1cc(C)c(NC(=O)CSc2nc3ccc(NC(=O)CSc4nnnn4Cc4ccccc4)cc3s2)c(C)c1 | 4.96% |
| Cn1c(=O)c2c(-c3ccccc3)n3c4ccccc4ncc3c2n(C)c1=O | -3.46% |
| CC(C)COC(=O)C1[C@H]2C(=O)N(Cc3cccs3)C[C@]23C=C[C@H]1O3 (stereo partly shown) | 12.3% |
| CCCCOc1cccc(C(=O)N(Cc2ccco2)C2CCS(=O)(=O)C2)c1 (stereo not shown) | 9.71% |
| CCN(CC(=O)Nc1ccccc1OC)C(=O)c1cccc(-n2cccc2)c1 | 9.03% |
| CN1CCCN(C(=O)CC2(CC(=O)O)CCCC2)CC1.Cl | 10.6% |
| CCCCCCCCCCOC(=O)c1csc2nnsc12 | 0.201% |
| N#Cc1ccc(C(=O)Nc2ccc([N+](=O)[O-])cc2)c(F)c1 | 13.1% |
| CC(C)NS(=O)(=O)c1ccc(OCC(=O)Nc2cccc(F)c2)cc1 | 2.49% |
| CN(C)/C=C/C(=O)c1cccc(Oc2ncccn2)c1 | 9.36% |
| COc1ccc(N2CC(C(=O)OCC(=O)NCc3ccccc3)CC2=O)cc1 (stereo not shown) | -9.59% |

| Structure (SMILES) | hERG current change (%, negative = inhibition) at 1uM |
| --- | --- |
| Cc1ccc(N(C(C)C(=O)Nc2ccc(S(=O)(=O)N3CCOCC3)cc2)S(C)(=O)=O)cc1C (stereo not shown) | 10.3% |
| COc1ccc(C2=NS(=O)(=O)N(C)C(C(=O)N3CCCCC3C)=C2)cc1 (stereo not shown) | -0.279% |
| COC(=O)c1c(C)oc(C)c1S(=O)(=O)NCc1cccs1 | 9.03% |
| COc1ccc(NC(=S)Nc2cccc(C(C)=O)c2)cc1OC | 0.566% |
| O=C1CC(=O)N(Cc2cccs2)C(=O)N1 | 5.59% |
| CCOC(=O)c1cc(NC(=O)CCC(=O)O)ccc1N1CCCCC1 | 16.5% |
| CCOC(=O)c1c(S(=O)(=O)NCCc2ccco2)c(C)n(C)c1C | 8.95% |
| CCn1nc(CC(=O)Nc2nnc(CC(=O)N3CCOCC3)s2)c2ccccc2c1=O | 15.3% |
| COc1cc(/C=C/C(=O)OCC(=O)NC(=O)NCc2ccccc2)ccc1OCC#N | 8.33% |
| COc1ccccc1C(C)NC(=O)CN(C)CC(=O)Nc1c(C)cccc1C (stereo not shown) | 1.01% |
| COc1ccc(N(Cc2cc(=O)[nH]c3ccccc23)C(=O)C(C)C)cc1 | 3.64% |
| COc1ccccc1[C@@H]1C(c2cccc(C)c2)=NN(c2ccccc2)[C@H]1C(=O)N1CCOC1=O | 6.93% |
| O=S(=O)(c1ccc(Cl)cc1)N1CCN(C2CCCCCC2)CC1 | 1.61% |
| COc1ccc(NC(=O)CSc2ccc3nnc(-c4cccnc4)n3n2)c(OC)c1 | 2.46% |
| O=C(c1ccc(F)cc1)N1CCC2(CC1)OCCO2 | 17.4% |
| O=C(O)CN(c1ccc(F)cc1)S(=O)(=O)c1ccc2c(c1)OCCO2 | -2.77% |
| Oc1ccc2oc3c(c2c1/C=N/n1cnnc1)CCCC3 | -7.1% |
| O=C(NC1CCCCC1)c1cnn2c(C(F)(F)F)cc(-c3ccco3)nc12 | -7.98% |
| COc1cc(NS(=O)(=O)c2ccc(NC(=S)NC(C)=O)cc2)nc(OC)n1 | 17% |
| O=C(NCCCN1CCOCC1)c1cc2cc(Br)ccc2oc1=O | 3.72% |
| O=C(NCCC1=CCCCC1)c1cc(-c2ccncc2)nc2ccccc12 | 8.31% |
| COC(=O)c1cc(CNC(=O)c2ccc(S(=O)(=O)N(C)c3ccccc3)cc2)ccc1OC | 7.08% |

| Structure (SMILES) | hERG current change (%, negative = inhibition) at 1uM |
| --- | --- |
| OCC[C@@H]1C[C@@H](O)[C@H](O)[C@]2(Cc3ccccc3O2)O1 | 19.1% |
| CCc1cccc(NC(=O)CCCn2nc(CC)n3c(cc4occc43)c2=O)c1 | 4.68% |
| Cc1cccc(CSC2=NCCN2S(=O)(=O)c2ccc(F)cc2)c1 | 3.05% |
| Cl.NC(CO)C(=O)NNCc1ccc(O)c(O)c1O (stereo not shown) | 13.1% |
| COC(=O)C1=C(C)N(Cc2ccccc2)C(=NCCc2ccccn2)N[C@H]1c1cccc(F)c1 | -14.2% |
| Br.N=C1CCCN1CC(=O)c1ccc(Br)cc1 | -0.319% |
| CC(CNC(=O)c1ccccc1[N+](=O)[O-])NC(=O)c1ccccc1[N+](=O)[O-] (stereo not shown) | 13.5% |
| CCOc1ccccc1N1CCN(CC(=O)c2c(N)n(C)c(=O)n(C)c2=O)CC1 | 8.99% |
| CC(=O)Nc1ccc(S(=O)(=O)NCC(=O)OCC(=O)NNC(=O)c2ccccc2)cc1 | 5.9% |
| CN(C)/C=C(\C#N)S(=O)(=O)c1ccc(Cl)cc1 | 9.98% |
| O=C(NC1CCCCC1)c1cc(-n2cnnc2)ccc1Cl | 11.2% |
| O=C(COC(=O)c1ccccc1NC(=O)c1ccco1)NC1CC1 | -0.487% |
| CNC(=O)NC(=O)C(NC1CCCc2ccccc21)c1ccccc1 (stereo not shown) | 13.5% |
| Cc1ccc(-n2c(CNc3cccc(Cl)c3)n[nH]c2=S)cc1 | 12.8% |
| CC(C)c1ccc(NC(=O)C2CCCN2S(=O)(=O)c2ccccc2F)cc1 (stereo not shown) | 10.7% |
| N#C/C(=C(/O)COC(=O)CSc1ccc2ccccc2c1)c1nc2ccccc2[nH]1 | 8.5% |
| COc1cccc(NC(=S)N(CCN(C)C)C(C)c2cccnc2)c1 (stereo not shown) | 16.5% |
| COc1ccc(N(CC(=O)NCc2ccco2)S(C)(=O)=O)cc1 | 8.8% |
| CCCCN(CCCC)S(=O)(=O)c1ccc(NC(=O)c2cccs2)cc1 | 8.4% |
| CC(C)c1ccc(C(=O)N2CCCN(C(=O)c3ccc(C(C)C)cc3)CC2)cc1 | 4.35% |
| O=C(CCCC(=O)OCC(Cl)=C(Cl)Cl)Nc1cccc2ccccc12 | 12.9% |
| COc1ccc(NC(=O)CO/N=C/C(=O)Nc2ccccc2C)c([N+](=O)[O-])c1 | 2.96% |

| Structure (SMILES) | hERG current change (%, negative = inhibition) at 1uM |
| --- | --- |
| COCCNC(=O)c1cc(-c2ccccc2)n(CC2CC(c3ccc(OC)cc3)=NO2)n1 (stereo not shown) | 1.17% |
| CCOC(=O)c1[nH]c(C)c(C(=O)N2CCN(c3ccccc3)CC2)c1C | -3.94% |
| CC(C)(C)c1nn2cnnc2n(/N=C/c2ccccc2)c1=O | 4.2% |
| CC(Cc1ccccc1)C(=O)NCc1ccccn1 (stereo not shown) | 4.46% |
| CCc1nnc(NS(=O)(=O)c2ccc(N/C=C\C(=O)c3ccc(C)cc3)cc2)s1 | 10.8% |
| CC(C)CC1=C/C(=C/c2ccc(-c3ccccc3)o2)C(=O)O1 | 3.31% |
| O=C(OCC(=O)N1CCc2ccccc21)c1c2c(nc3ccccc13)CCCC2 | 8.64% |
| CCOCCCN(C(=O)c1snc(C(N)=O)c1N)C(C(=O)NC1CCCC1)c1ccc(OC)cc1 (stereo not shown) | -23.6% |
| CCOc1nc(-c2ccccc2)ccc1-c1noc(-c2ccco2)n1 | 13.5% |
| Cc1nc(-c2cccc(C(F)(F)F)c2)sc1C(=O)O | 12.6% |
| Cc1ccc(S(=O)(=O)N2CCCC2)cc1[N+](=O)[O-] | -5.99% |
| COc1ccccc1Oc1coc2c(CN3CCN(C)CC3)c(O)ccc2c1=O | 9.69% |
| CCOC(=O)C1CCN(C(=O)/C=C/c2ccccc2)CC1 | 8.51% |
| C#CCOCCOCCOCCNc1nc(N2CCN(C(=O)C([C@@H](C)CC)n3cc(C(N)CC(C)C)nn3)CC2)nc(N2CCN(C(=O)[C@H](CCCCN)n3cc(C(N)COC(=O)C(F)(F)F)nn3)CC2)n1.Cl (stereo partly shown) | 0.453% |
| COc1ccc(OC)c(S(=O)(=O)NCCCN2CCCC2=O)c1 | 10.2% |
| CCC(=O)N1CCN(c2ccc(Cl)cc2NC(=O)c2ccc(Br)o2)CC1 | -2.05% |
| CCN(CC)S(=O)(=O)c1ccc(/C=C/C(=O)N(c2ccccn2)C2CCCCC2)cc1 | 4.46% |
| O=C(NCC(c1ccco1)N1CCCCC1)c1cccc(S(=O)(=O)Nc2ccccc2Cl)c1 (stereo not shown) | 1.64% |
| CCOC(=O)c1c(-c2ccccc2)csc1NC(=O)c1ccc(S(=O)(=O)N2CC(C)OC(C)C2)cc1 (stereo not shown) | 3.62% |
